{
  "source": "PubChem BioAssay AID624171",
  "about": "(National Center for Advancing Translational Sciences (NCATS), 2012)",
  "note": "The campaign covered roughly 410,000 compounds. About 1,200 (0.29%) were called active. Inconclusive results, whose numbers are uncertain, are shown with a selection of clear calls. Calls follow the shape of the dose curve; as a rule, active = well fitted activation curve with a large enough effect; inconclusive = small, poorly fitted or top-dose-only effect; inactive = flat fitted curve, though single readings scatter. Potencies of inconclusive entries are doubtful fits and often do not repeat. Potency is read from the fitted curve at half-maximal effect; tags tell the direction and shape of the fitted curve.",
  "data": [
    {"assay": "qHTS of Nrf2 Activators; also: nearly all actives have a fitted effect of over 65% in size", "details": "AREc32 ARE-luciferase reporter (MCF7-derived line), luminescence, 24 h; activation: at 46.1 µM (top of the series)", "description": "Many diseases have some form of oxidative stress injury and ties to inflammation, causing a host of problems for the patient. The antioxidant response element (ARE) plays an important role in alleviating the harmful effects of oxidative stress. The antioxidant response element (ARE) is a transcriptional regulatory element involved in the activation of genes coding for a number of antioxidant proteins and detoxifying enzymes. These enzymes work in concert to protect tissues from oxidative insults and chemical toxicities in human hepatocytes and immune cells. The protective effects of ARE activation are primarily triggered through Nrf2 (NF-E2-related factor) binding to and activating AREs. It is known that Nrf2 controls the production of over 250 antioxidant and detoxification proteins (Hu et al., 2006), thereby protecting tissues by increasing cellular antioxidant content and suppressing inflammatory signaling pathways. The transcription factor Nrf2 is a central link between oxidative chemicals, such as phenolic antioxidants and electrophilic compounds, and the activation of ARE. Nrf2 levels are constitutively low as a consequence of its interaction with Keap1, which targets its degradation (Zipper and Mulcahy, 2002). Electrophiles react with key cysteine residues in Keap1, releasing Nrf2 and allowing its translocation to the nucleus. Once within the nucleus, Nrf2 complexes with coactivators such as p300, and binds to the AREs to induce gene transcription of cytoprotective enzymes, resulting in the prevention of toxicity. Activation of Nrf2 protects tissues by increasing cellular antioxidant content and suppressing inflammatory signaling pathways. Identifying novel and potent Nrf2 activators by using the AREc32 cell line to detect ARE activation by small molecules will lead to the identification and development of probes to study protective pathways in multiple tissues. These specific probes are essential to study the ARE pathway, and eventually to determine whether this pathway does activate genes that could protect against a host of diseases, including cardiovascular diseases, obesity, diabetes, Alzheimer's, and Parkinson's disease.\nThis project's aim is to identify novel and potent Nrf2 activators by using the AREc32 cell line to detect ARE activation by small molecules, which will lead to the identification and development of probes to study the ARE pathway.\nNIH Chemical Genomics Center [NCGC]\nNIH Molecular Libraries Probe Centers Network [MLPCN]\nAssay Submitter (PI): Curtis Klaassen, University of Kansas Medical Center\n5 uL of 1000 cells/well of AREc32_Fluc cells are seeded into 1536-well plate in OPTI-MEM medium with 5% FBS. The plates are incubated overnight at 37 deg C with 5% CO2. Then through pin tool transfer, 23 nL of compounds are added to each well before a 24 hr incubation at 37 deg C with 5% CO2. After the addition of 2.5 uL of Steady-Glo. the plates are kept at RT for 30 min, before they are read on the ViewLux.", "values": [
      {"smiles": "Cc1ccc(S(=O)(=O)c2cnc(-c3ccccc3)nc2N2CCN(C)CC2)cc1", "Potency": "inactive"},
      {"smiles": "O=C(Nc1ccc(F)cc1F)c1cc(-c2ccco2)nc2ccccc12", "Potency": "inconclusive: 0.631 µM [activator, full curve, poor fit]"},
      {"smiles": "CN1/C(=C\\C(=O)CSc2nnc(NCc3ccccc3)s2)C(C)(C)c2ccccc21", "Potency": "inactive"},
      {"smiles": "CC(=O)Nc1nc(C)c(-c2csc(Nc3ccc(O)cc3)n2)s1", "Potency": "inconclusive: 2.82 µM [activator, full curve, poor fit]"},
      {"smiles": "Cc1ccc(/C=N/Nc2nnc(Cl)c3ccccc23)cc1", "Potency": "inconclusive: 1.58 µM [activator, full curve, poor fit]"},
      {"smiles": "Cc1ccc(S(=O)(=O)N2C[C@H]3n4c(=O)ccc(=O)n4C[C@H](OC(=O)NC4CCCC4)[C@@]3(O)C2)cc1", "Potency": "inconclusive: 28.2 µM [activator, single point]"},
      {"smiles": "Cc1c([N+](=O)[O-])cc(C(=O)Nc2ccc(Cc3ccncc3)cc2)cc1[N+](=O)[O-]", "Potency": "inactive"},
      {"smiles": "Cc1csc2ncnc(NC3CCN(Cc4ccccc4)CC3)c12", "Potency": "inactive"},
      {"smiles": "N#Cc1c(NC(=O)CCCl)sc2c1CCCCC2", "Potency": "inconclusive: 12.6 µM [activator, partial curve]"},
      {"smiles": "C=C1CC[C@@H]2[C@](C)(CO)[C@H](O)CC[C@@]2(C)[C@@H]1C/C=C1/C(=O)OCC1O", "note": "(stereo not given in full)", "Potency": "inconclusive: 12.6 µM [activator, partial curve, poor fit]"},
      {"smiles": "CC(C)Cc1ccc(CN2C(C)C(=O)N(Cc3cn(Cc4ccco4)nn3)CCS2(=O)=O)cc1", "note": "(stereo not given)", "Potency": "inactive"},
      {"smiles": "Oc1ccc(Cl)cc1C1=NNC(c2cccs2)C1", "note": "(stereo not given)", "Potency": "inconclusive: 7.08 µM [activator, full curve]"},
      {"smiles": "Cc1cnc(N=Nc2ccccc2)[nH]1", "Potency": "inconclusive: 15.8 µM [activator, single point]"},
      {"smiles": "O=C1C=CC(=O)C(CNc2ccc(C(=O)OCc3ccccc3)cc2)=C1", "Potency": "inconclusive: 3.55 µM [activator, full curve, poor fit]"},
      {"smiles": "CCC(=O)N1c2ccc(S(=O)(=O)CCC(=O)Nc3nccs3)cc2CC1C", "note": "(stereo not given)", "Potency": "inconclusive: 22.4 µM [activator, single point]"},
      {"smiles": "COc1ccc(C(C)=O)cc1CSc1ccccn1", "Potency": "inconclusive: 15.8 µM [activator, partial curve, poor fit]"},
      {"smiles": "c1ccc(Nc2nc(-c3ccncc3)cs2)nc1", "Potency": "inconclusive: 2.82 µM [activator, full curve, poor fit]"},
      {"smiles": "COc1ccc(C(=O)CCS(=O)(=O)c2ccc(C)cc2)cc1", "Potency": "inconclusive: 20 µM [activator, single point]"},
      {"smiles": "Cc1c(NC(=O)c2cc(Br)ccc2Cl)cccc1-n1cnnn1", "Potency": "inconclusive: 5.62 µM [activator, partial curve]"},
      {"smiles": "CN1/C(=C\\C(=O)c2cccs2)Sc2ccccc21", "Potency": "active: 3.98 µM"},
      {"smiles": "Clc1ccccc1-c1nc(-c2ccc(Br)o2)no1", "Potency": "inconclusive: 2.51 µM [activator, full curve]"},
      {"smiles": "CN1C(=O)Cc2cc(S(=O)(=O)CCC(=O)Nc3ccc(Cl)c(C(F)(F)F)c3)ccc21", "Potency": "inactive"},
      {"smiles": "Cc1noc(C)c1-c1ccc(C(=O)NCc2cccs2)c2occc12", "Potency": "inconclusive: 12.6 µM [activator, single point]"},
      {"smiles": "COc1ccc(-c2cn3c(n2)sc2cc(C(=O)Nc4cccc(SC)c4)ccc23)cc1", "Potency": "inactive"},
      {"smiles": "C[C@H](NC(=O)c1[nH]cnc1C(=O)Nc1cccc(Cl)c1)c1ccccc1", "Potency": "inactive"},
      {"smiles": "O=C(/C=C/c1ccccc1)Oc1coc(CSc2ncccn2)cc1=O", "Potency": "inconclusive: 15.8 µM [activator, single point]"},
      {"smiles": "CC(=O)OCCCNc1cc(SCc2ccco2)c2nonc2c1[N+](=O)[O-]", "Potency": "inconclusive: 22.4 µM [activator, single point]"},
      {"smiles": "CN(CC(=O)Nc1ccc(F)cc1)C(=O)c1cc(-c2cccs2)nn1-c1ccccc1", "Potency": "inactive"},
      {"smiles": "Cc1ccc(S(=O)(=O)NC2(C(=O)O)CCCC2)cc1", "Potency": "inactive"},
      {"smiles": "Cc1ccc(Sc2cnn(-c3ccccc3)c(=O)c2Cl)cc1", "Potency": "active: 5.01 µM"},
      {"smiles": "CCOc1ccc(C2CC(=O)NC(NC(=O)c3cccc(Cl)c3)=N2)cc1", "note": "(stereo not given)", "Potency": "inconclusive: 14.1 µM [activator, partial curve, poor fit]"},
      {"smiles": "O=C(Nc1cccc(-c2nc3cccnc3s2)c1)c1ccco1", "Potency": "inconclusive: 11.2 µM [activator, partial curve, poor fit]"},
      {"smiles": "N#C/C(=C(/O)COC(=O)COc1ccc(Cl)cc1)c1nc2ccccc2[nH]1", "Potency": "inconclusive: 31.6 µM [activator, single point]"},
      {"smiles": "CNC(C)C#Cc1ccc2oc3cccc(OC)c3c(=O)c2c1", "note": "(stereo not given)", "Potency": "inconclusive: 14.1 µM [activator, single point]"},
      {"smiles": "COc1ccc(C(=O)CCN2CCCC(C)C2)cc1", "note": "(stereo not given)", "Potency": "inconclusive: 28.2 µM [activator, single point]"},
      {"smiles": "CCn1c(C(=O)Nc2c(C)cccc2C)cc2sc(Cl)cc21", "Potency": "inactive"},
      {"smiles": "O=C(COC(=O)/C=C/c1cccs1)Nc1nc(-c2ccccc2)cs1", "Potency": "inconclusive: 12.6 µM [activator, partial curve, poor fit]"},
      {"smiles": "Cc1ccnc(NC(=O)c2ccc([N+](=O)[O-])s2)c1", "Potency": "inconclusive: 3.55 µM [activator, single point]"},
      {"smiles": "CCOC(=O)N1CCc2c(sc(NC(=O)CCS(=O)(=O)c3ccccc3)c2C(N)=O)C1", "Potency": "inconclusive: 35.5 µM [activator, single point]"},
      {"smiles": "Oc1c(Cl)cc(Cl)cc1/C=N/c1nccs1", "Potency": "inconclusive: 35.5 µM [activator, single point]"},
      {"smiles": "O=C(Nc1ccc(S(=O)(=O)NC2=NCCCCC2)cc1)c1ccc(Cl)c([N+](=O)[O-])c1", "Potency": "inconclusive: 22.4 µM [activator, single point]"},
      {"smiles": "Cc1cc(Nc2cc(Cl)ccc2C)n2nc(-c3ccccc3)nc2n1", "Potency": "inactive"},
      {"smiles": "O=C(NC1CCCCC1)c1ccc(CSc2nc3cccnc3n2Cc2ccccc2)cc1", "Potency": "inactive"},
      {"smiles": "COc1ccccc1-c1nnc(NC(=O)c2cccc(N3C(=O)CCC3=O)c2)o1", "Potency": "inconclusive: 11.2 µM [activator, partial curve]"},
      {"smiles": "CC(=O)OCCN(C)c1cc(SC(C)C)c2nonc2c1[N+](=O)[O-]", "Potency": "inconclusive: 28.2 µM [activator, single point]"},
      {"smiles": "Cc1cc(C(=O)N/N=C/C(Cl)=C/c2ccccc2)c(C)o1", "Potency": "inconclusive: 10 µM [activator, partial curve]"},
      {"smiles": "CCOC(=O)c1oc2ccc(OC)cc2c1NC(=O)CN1CCN(C)CC1", "Potency": "inactive"},
      {"smiles": "Cc1ccc(/C=N/Nc2ccccn2)s1", "Potency": "inconclusive: 15.8 µM [activator, single point]"},
      {"smiles": "COc1ccccc1C(=O)COC(=O)c1ccccc1O", "Potency": "inconclusive: 15.8 µM [activator, single point]"},
      {"smiles": "Cc1nnc(NC(=O)c2ccc(S(=O)(=O)N3CCCCCC3)cc2)o1", "Potency": "inactive"},
      {"smiles": "CCOC(=O)Nc1cc2c(cc1[N+](=O)[O-])-c1ccccc1C2=O", "Potency": "inconclusive: 15.8 µM [activator, partial curve, poor fit]"},
      {"smiles": "O=C(COc1cccc2ccccc12)NNC(=O)c1cccs1", "Potency": "inactive"},
      {"smiles": "O=C(Nc1ccc(OC(F)(F)F)cc1)c1[nH]ncc1[N+](=O)[O-]", "Potency": "inconclusive: 35.5 µM [activator, partial curve, poor fit]"},
      {"smiles": "Cc1ccc(NCCC(=O)c2cccc([N+](=O)[O-])c2)c(C)c1", "Potency": "inconclusive: 31.6 µM [activator, single point]"},
      {"smiles": "O=C(Nc1ccc2ccccc2n1)c1ccccc1Br", "Potency": "active: 11.2 µM"},
      {"smiles": "COc1ccccc1-c1cc(C(F)(F)F)nc(S(=O)(=O)CCCC(=O)NCc2ccc(F)cc2)n1", "Potency": "inconclusive: 3.16 µM [activator, full curve, poor fit]"},
      {"smiles": "Cc1cc(C)n2nc(SCc3cccc(S(=O)(=O)N(C)C)c3)nc2n1", "Potency": "inconclusive: 10 µM [activator, partial curve]"},
      {"smiles": "CC(=O)Oc1ccc2c(=O)c(-c3nc4ccccc4s3)coc2c1", "Potency": "inconclusive: 2.82 µM [activator, full curve, poor fit]"},
      {"smiles": "Cc1ccc(NC(=O)/C(C#N)=C(\\N)C(Cl)(Cl)Cl)nc1", "Potency": "inconclusive: 17.8 µM [activator, single point]"},
      {"smiles": "Cc1ccccc1NC(=O)CSc1nc(-c2cccs2)nc2cc(=O)[nH]n12", "Potency": "inactive"},
      {"smiles": "CC(C)=CCOc1ccc2ccc(=O)oc2c1", "Potency": "inconclusive: 28.2 µM [activator, single point]"},
      {"smiles": "O=S(=O)(c1cccc(Cl)c1)n1c(/C=C/c2ccccc2Cl)nc2ccccc21", "Potency": "inactive"},
      {"smiles": "COc1ccccc1C(=O)Nc1nc2ccc(S(C)(=O)=O)cc2s1", "Potency": "inactive"},
      {"smiles": "COc1ccc(NC(=O)c2cc(C)on2)cc1", "Potency": "inactive"},
      {"smiles": "Cc1cccc(C)c1NC(=O)/C(C#N)=C/c1ccsc1", "Potency": "inconclusive: 15.8 µM [activator, single point]"},
      {"smiles": "Cc1ccc(-c2nc3cccc(C)n3c2Nc2ccc3c(c2)OCO3)o1", "Potency": "inconclusive: 15.8 µM [activator, single point]"},
      {"smiles": "COc1ccccc1Nc1nc(Cl)c(C=O)s1", "Potency": "inconclusive: 11.2 µM [activator, partial curve, poor fit]"},
      {"smiles": "O=C(Nc1ccccc1C(F)(F)F)C1CCN(S(=O)(=O)c2ccccc2)CC1", "Potency": "inactive"},
      {"smiles": "COc1ccccc1-c1nnc(Sc2nc([N+](=O)[O-])nn2C)o1", "Potency": "inconclusive: 12.6 µM [activator, partial curve, poor fit]"},
      {"smiles": "CNC(=O)c1c(NC(=O)CCS(=O)(=O)c2ccc(C)cc2)sc2c1CCN(C(=O)OC)C2", "Potency": "inconclusive: 20 µM [activator, single point]"}
    ]}
  ]
}
